In data set [1] the test system is 4T1 cells. As to the kind of experiment: 4T1 orthotopic breast cancer model. Type of data set: in vivo, mouse. The settings on record: 10 mg/kg i.p. three times per week, day 22. As for the experimental part:
Studies of the effects of the 1G04 anti-CD36 antibody on breast cancer were performed in BALB/c mice (immuno-competent). The studies included only female mice. All mice were inoculated with commercially available 4T1 cancer cells (ATCC), transduced with a vector expressing luciferase. 4T1 cells were derived from murine mammary gland tissue (i.e. from a breast cancer). Prior to inoculation, 4T1 cells were cultured in a humidified incubator at 37° C. with 5% CO2, and were grown in RPMI medium supplemented with 5 μg ml^−1 penicillin/streptomycin, 2 mM L-Glutamine and 10% FBS (GIBCO).
For each mouse, 4×10^4 4T1 cells were inoculated orthotopically in the mammary fat pad. Treatment began 5 days after inoculation with 4T1 cells. Mice were divided into one of two treatment groups: vehicle injection control (n=10) or 1G04 treatment (n=10). Antibody treatments were administered via intraperitoneal (i.p.) injection at a dose of 10 mg/kg three times per week, while control mice received an equal volume of vehicle on the same schedule (FIG. 32B). Mice were sacrificed at the end of the treatment period (day 22). Upon sacrifice, organs and tissues were collected for performance of necropsy and ex-vivo IVIS.

Data set [2] addresses T1, CD36 (Homo sapiens, UniProt P16671). As to the kind of experiment: ELISA binding to plate-coated human CD36. Set-up: purchased Sino Biological 10752-H08H. The settings on record: recombinant human CD36 coated plates. As for the experimental part:
To perform ELISA assays, 96-well ELISA plates were coated over night with human CD36 (Sino Biological, reference 10752-H08H) or mouse CD36 (Sino Biological, reference 50422-M08H) recombinant proteins at a concentration of 0.25 mg/ml. After two washes with PBS, plates were blocked with 4% skimmed milk in PBS for 1 hour at 37° C. Blocking solution was discarded and plates were washed five times with 200 μl/well PBS-Tween20 (0.5%). Primary antibodies were either omitted (control blocking solution treatment) or mixed in blocking solution at several dilutions ranging from 0.01 nM to 0.5 μM. The primary antibody solutions were added to the wells and incubated over night at 4° C. After 5 washes with 200 ul/well of PBS-Tween20 (0.5%), plates were incubated for 1 hour at room temperature with a goat anti-mouse HRP-conjugated antibody (Abeam, reference ab97235) diluted 1:2000 in blocking solution. Plates were then washed 5 times with 200 μl/well of PBS-Tween20 (0.5%), incubated with 100 μl/well TMB and detected after 10 minutes, 30 minutes, or 60 minutes with a spectrophotometer at a wave length of 630 nm.
On the technique in general: An ELISA detects its analyte on a solid surface through an enzyme-linked reagent.

Data set [3] relates to HCT-116 cells. As to the kind of experiment: HCT-116 orthotopic mouse model of colon cancer (Example 10). The data set is classed as in vivo. As for the experimental part:
Studies of the effects of the 1G04 anti-CD36 antibody on colon cancer were performed in BALB/c nude mice (immuno-deficient). The studies included only female mice. All mice were inoculated with commercially available HCT-116 (ATCC) cancer cells, transduced with a retroviral vector expressing luciferase. HCT-116 cells were derived from a human colorectal carcinoma (i.e., from a colon cancer). Prior to inoculation, the HCT-116 cells were cultured in a humidified incubator at 37° C. with 5% CO2, and were grown in McCoy's 5A medium supplemented with 5 μg ml^−1 penicillin/streptomycin and 10% FBS (GIBCO).
For each mouse, 2×10^6 HCT-116 cells were inoculated via orthotopic injection. Each mouse was imaged after inoculation and one week later and liver metastasis were confirmed by ex vivo luminescence prior to start of treatment. Treatment began 12 days after inoculation with the HCT-116 cells. Inoculated mice were divided into one of two treatment groups: vehicle injection control (n=10) or 1G04 treatment (n=10). Antibody treatments were administered via intraperitoneal (i.p.) injection at a dose of 10 mg/kg three times per week, while control mice received an equal volume of vehicle on the same schedule. One day prior to the start of treatment, and at 7, 14, and 21 days after the start of treatment, all mice were imaged via IVIS. Mice were sacrificed at the end of the treatment period (day 25). Upon sacrifice, organs and tissues were collected for performance of necropsy, ex-vivo IVIS, and histopathology.

In data set [4] the target is T1, CD36. As to the kind of experiment: Luminescence-based fatty acid uptake assay in SCC-25 cells expressing CD36. Set-up: host or cells: SCC-25 cells stably transduced with a retroviral vector expressing CD36 and a lentiviral luciferase vector. Type of data set: cell-based. The settings on record: 10 ug/ml antibody. As for the experimental part: To measure the ability of anti-CD36 antibodies to alter fatty-acid uptake driven by CD36, commercially available SCC-25 cells (ATCC) were modified by stable transduction with a retroviral vector expressing CD36 and a lentiviral vector expressing luciferase. These cells, derived from a squamous cell carcinoma of the tongue, were grown were grown in keratinocyte serum-free medium (KSFM) supplemented with 5 µg/ml penicillin/streptomycin, 0.025 mg/ml bovine pituitary extract and 0.2 μg/ml hEGF. Fatty acid uptake was evaluated using a commercially available bioluminescent-labelled long chain fatty acid analogue (SwissLumix) as a substrate. To perform the assay, cells were plated in 96-well plates and, starting the following day, were stimulated with 100 uM palmitic acid for 48 hours. Isotype control antibody or 1G04 were added at 10 ug/ml prior to palmitic stimulation and refreshed on the following days. To quantify uptake kinetics, substrate was added to plates after washing with PBSIX, and readings were taken over time using a Synergy HIM plate reader.

Setting [5] is: 10 mg/kg i.p. three times per week.

T1 sequence (P16671 whole entry): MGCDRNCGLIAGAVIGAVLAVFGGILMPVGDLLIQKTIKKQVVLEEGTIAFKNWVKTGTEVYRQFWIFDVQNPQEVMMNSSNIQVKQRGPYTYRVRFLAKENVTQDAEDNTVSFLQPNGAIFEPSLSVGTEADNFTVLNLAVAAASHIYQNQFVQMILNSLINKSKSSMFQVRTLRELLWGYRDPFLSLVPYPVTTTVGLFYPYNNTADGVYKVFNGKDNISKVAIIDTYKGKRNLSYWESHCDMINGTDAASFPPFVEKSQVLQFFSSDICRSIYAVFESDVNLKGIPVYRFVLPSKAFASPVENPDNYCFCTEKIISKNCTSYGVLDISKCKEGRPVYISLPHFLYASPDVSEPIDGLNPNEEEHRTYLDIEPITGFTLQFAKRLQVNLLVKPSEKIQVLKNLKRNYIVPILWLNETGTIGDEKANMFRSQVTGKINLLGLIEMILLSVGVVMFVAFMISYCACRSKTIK

B1: 1G04: chimeric ONA-0-v1 IgG1 LALA antibody; heavy chain SEQ ID NO: 21, light chain SEQ ID NO: 23 (antibody)
heavy: QVQLKQSGADLVRPGASVKLSCKASGYTFTDYYINWVKQRPGQGLEWIARIYPGSGNTYYNEKFKGKATLTAEKSSSTAYMQLSSLTSEDSAVYFCARGIGGGFGMDYWGQGTSVTVSS[skipping human IgG1 constant region with changes]
light: SIVMTQTPKFLLVSAGDRITITCKASQSVSDDVAWYQQKPGQSPKLLIYYASNRYTGVPDRFTGSGYGTDFTFTISTVQAEDLAVYFCQQDYSSPLTFGAGTKLEIKRTVAAPSVFIFPPSDEQLKSGTASVVCLLNNFYPREAKVQWKVDNALQSGNSQESVTEQDSKDSTYSLSSTLTLSKADYEKHKVYACEVTHQGLSSPVTKSFNRGEC
modifications: 1G04 heavy chain; 1G04 light chain; 1G06 light chain
For the molecule B1, the “luminescence in the lungs (ex vivo)” value in data set [1] is given as 5.96*10^4. The “binding to human CD36 in ELISA” value in data set [2] is on record as “specifically bound”. Also, in data set [3] (setting [5]), the “body weight during course of treatment” value is listed as “better able to maintain weight” and the “whole-animal bioluminescence over time” value is recorded as “decreased whole animal luminescence”. Besides, the “mean ex vivo luminescence, lung” value in data set [3] (IVIS at sacrifice) is given as 1.68*10^6. Moreover, the “fatty acid uptake kinetics over time” value in data set [4] is “blocked fatty acid uptake over time”. In addition, in data set [4] (256 seconds after addition of substrate, palmitic acid stimulated), the “inhibition of fatty acid uptake relative to control cells” value is recorded as “approximately 17%”.
